Experimental data taken from the RNAGym collection of RNA variant scans (doi:10.7554/elife.90254).
The source gives no read counts; variants with many changes may rest on few reads.

B1: LINE1-full (parent)
chain: UACGUAGGUGGUUUUCCCCUGAUAGUGCUAAGGGGGCCUGGAAGUUUGGACUGGGCAGAGCUCAACACAGCGUGGCAAAGUGGCUGUGGCUAGACUGCCUCUCUGGAUUCCUCGUCACUCAGCAGGGCAUCUCUGAGAGAAAUGCC

Variants of: B1
Assay: self-cleavage, relative activity (ratio to wild type); higher = more cleavage; in vitro, sequencing; the parent is a self-cleaving ribozyme

Variant	self-cleavage
UACGUAGGCGGUUUUCCCCUGAUAGUGCUAAGGGGGCCUGGAAGUUUGGACCGGGCAGAGCUCAACACAGCGUGGUAAGGUGGCUGUGGCUAGACUGCCUCUCUGGAUUCCUCGCCACUCAGCAGGGCAUCUCUGAGAGAUAUGCC [U9C U52C C76U A79G U115C A141U]	2.02
UACGUAGGUGGUCUUCCCCUGAUAGUGCUAAGGGAGCCUGGAAGUUUGGACUGGGCAGGGCUCAACACAGCGCGGCAAAGUGGCUGUGGCUAGACUGCCUCUCUGGAUUCCUCGUCACACAGCAGGGCAUCUCUGAGAGAAAUGCC [U13C G35A A59G U73C U119A]	0.2
UACGUAGGUGGUUCUCCCCUGAUAGUGCUAAGGGGGCCUGGAAGUUUGGACUGGGCAGGGCUCGACACAGCGUGGCAAAGUGGCUGUGGCUAGACUGCCUCUCUGGAUUCCUCGUCACUCAGCUGGGCAUCUCUGAGAGAAAUGCC [U14C A59G A64G A124U]	0.07
UACGUAGGUGGGUUCCCCCUGAUAGUGCUAAGGGGGCCUGGAAGUUUGGACUGGGCAGAGCUCGACACAGCGUGGCAAAGUGGCUGUGGCUAGACUGCCUCUCUGGAUUCCUCGCCACUCAGCAGGGCAUCUCUGAGAGAAAUGCC [U12G U15C A64G U115C]	0.28
UACGUAGGAGGUUUACCCCUGAUAGUGCUAAGGGGGCCUGGAAGUUUGGACUGGGCAGAGCUCAACACAGCGUGGCAAAGUGGCUGUGGCUAGACUGCCUCCCUGGGUUCCUCGUCACUCAGCAGGGCAUCUCUGAGAGAAAUGCC [U9A U15A U102C A107G]	0
UACGUAGGUGGUUUUCCCCUGAUAGUGCUAAGGGGGCCUGGAAGUUUGGACUGGGCAGAGCUCAACACAGCGUGGCAAAGUGGCAGCGGCUAGACUGCCUCUCUGGAUUCCUCGUCACUCUGCAGGGCAUCUCUGAGAGAAAUGCC [U85A U87C A121U]	0.05
UACGUAGGUGGUUUUCCCCUGAUAGUGCUAAGGGGGCCUGGAAGUUUGGACUGGGCAGAGCUCAACACAGCGUGGCAAGGUGGCUGUGGCUAGACUGCCUUUCUGGAUUCCGUGUCACUCAGCAGGGCAUCUCUGAGAGAAAUGCC [A79G C101U U112G C113U]	0.37
UACGUAGGUGGUUUUCCCCUGAUAGUGCUAAGGGGGCCUGGAAGUUUGGACUGGGCAGAGCUCAACACAGCGUGGCGAAGUGGCUGUGGCUAGACUGCUUCUCUGGAUUCCUCGUCACUCAGCAGGGCAACUCUGAGAGAAAUGCC [A77G C99U U130A]	1
UACGUAGGUGGUUUUCCCCUGAUAGUGCUAAGGGGGCCUGGAAGUUUGGACUGGGCAGAGCGCAACACAGCGUGGCAAAGUGGCUGUGGCUAGACUGCCUCUCUGGGUUCCUCGACACUCAGCAGGGCAUCUCUGAGAGAAAUGCC [U62G A107G U115A]	0.17
UACGUAGAUGGUUUUCCCCUGAUAGUGCUAAGGGGGCCUGGAAGUUUGGACUGGGCAGAGCUCAACACUGCGUGGCAAAGUGGCUGUGGCUAGACUGCCUCUCUGGAUUCCUCGUCACUCAGCAGGGCAACUCUGAGAGAAAUGCC [G8A A69U U130A]	0.1
UACGUAGGUGGUCUUCCCCUGAUAGUGCUAAGGGGGCCUGGAAGUUUGGACUGGGCAGAGCUCUACACAGCGUCGCAAAGUGGCUGUGGCUAGACUGCCCCUCUGGAUUCCCCGCCACUCAGCAGGGCAUCUCUGAGAGAAAUGCC [U13C A64U G74C U100C U112C U115C]	1.49
UUCGUAGGUGGUAUUCCCCUGAUAGUGCUAAGGGGGCCUGGAAGUUCGGACUGGGGAGAGCUCAACACAGCGUGGCAAAGUGGCUGUGGCUAGACUGCCUCUCUGGAUUCCUCGUCACUCAGCAGGGCAUCUCUGAGAGAAAUGCC [A2U U13A U47C C56G]	0.17
UACGUUGGUGGUUUUCCCCUGAUAGUGCUAAGGGGGCCUGGAAGUUUGGACUGGGCAGAGCUCAACACAGCGUGGCAAGGUGUCUGUGGCUAGACUGCCUCUCUGGAUUCCUCGUCACUCAGCAGGGCAUCUCUGAGAGAAAUGCC [A6U A79G G83U]	0.38
UACGUAGGUGGUUCUCCCCUGAUAGUGCUAAGGGGGCCUGGAAGUUUGGACUGGGCAGAGCUCGACACAGCGUGGUAAAAUGGCUGUGGCUAGACUGCCUCUCUGGAUUCCUCGUCACUCAGCAGGGCAUCUCUGAGAGAAAUGCC [U14C A64G C76U G80A]	0.42
UACGUAGGUGGGUUUCCCCUGAUAGUGCUAGGGGGGCCUGGAAGUUUGGACUGGGCAGAGCUCAACACAGCGUGGCAAAGUGGCUGUGGCUAGACUGCCUCUCUGGAUUCCUCGCCACUCAGCAGGGCAUCUCUGAGAGAAAUGCC [U12G A31G U115C]	0.18
UACGUGGGUGGUUUUCCCCUGAUAGUGCUAAGGGGGCCUGGAAGUUUGGACUGGGCAGAGCUCAACACAGCGUGGCAAAGUGGCUGAGGCUAGACUGCCUCUCUGGAUUCCUCGUCACUCAGCAGGGCAUCUCUGAGAGAGAUGCC [A6G U87A A141G]	0.16
UACGUAGGUGGUUUUCCCCUGAUAGUGCUAAGGAGGCCUGGAAGUUUGGACUGGGCAGAGCUCAACACAGCGUGGCGAAGUGGCUGUGGCUAGACUGCCUCUCUGGAUUCCUCGUCACUCAGCAGGGCAUCCCUGAGAGGAAUGCC [G34A A77G U132C A140G]	2.43
UACGUAGGUGGUUUUCCCCUGAUAGUGAUAAGGGGGCCUGGAAGUUUGGACUGGGCAGAGCUCAACACAGCGUGGCAAAGCGGCUGUGGCUAGACUGCCUCUCUGGAAUCCUCGUCACUCAGCAGGGCAUCUCUGAGAGAAAUGCC [C28A U81C U108A]	0.55
UACGUAGGUGGUAUGCCCCUGAUAGUGCUAAGGGGGCCUGGAAGUUUGGACUGGGCAGAGCUCAACACAGCGUGGCAAAGUGGCUGUGGCUAGACUGCCUCUCUGGAUUCCUCGUCGCUCAGCAGGGCAUCUCUGAGAGAGAUGCC [U13A U15G A117G A141G]	1.24
UGCGUAGGUGGUUUUCCCCUGAUAGUGCUAAGGGGGCCUGGAAGUCUGGACUGGGCAGAGCCCAACACGGCGUGGCAAAGUGGCUGUGGCUAGACUGCCUCUCUGGAUUCCUCGUCACUCAGCAGGGCAUCUCUGAGAGAAAUGCC [A2G U46C U62C A69G]	0
